Laboratory results published in the supplement of paper PMC4967469.
By IC50 is meant the dose at which the fit gives 50% viability; a limit (>, <) means that the fit lies beyond the doses tested. The AUC spans the tested range (256-fold, ending at the top dose) of the same fit; it is 1 without any effect and falls as sensitivity rises. For some assays here: A top dose marked as inferred comes from the curve model; the source does not state it. For some assays here: Drugs with an entry number were screened twice under separate entries, and the two screens often disagree.

Key:
Test in all cases: Viability of human cancer cell lines after 72 h of drug (GDSC screen)
Thapsigargin = compound: C/C=C(/C)C(=O)O[C@H]1C(C)=C2[C@H]([C@@H]1OC(=O)CCCCCCC)[C@@](C)(OC(C)=O)C[C@H](OC(=O)CCC)[C@@]1(O)[C@H]2OC(=O)[C@@]1(C)O [Thapsigargin]; conditions: top dose 0.512 µM; top dose inferred
Protocol: (§1)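 Human cancer cell lines in 384-well plates, medium with 10% serum, drug for 72 h over a 256-fold dose range (nine 2-fold or five 4-fold steps up to the top dose). Adherent lines were fixed and stained with the nucleic acid dye Syto60, suspension lines read with resazurin; signal relative to control wells, capped at 0 and 100%. One two-parameter sigmoid per drug and line, fitted in a mixed model over all curves with the slope shared within a line.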

QL-X-138 = compound: C=CC(=O)Nc1cc(-n2c(=O)ccc3cnc4ccc(-c5cn[nH]c5)cc4c32)ccc1C [QL-X-138]; conditions: top dose 10.24 µM; top dose inferred
Protocol: as §1

GSK269962A = compound: CCn1c(-c2nonc2N)nc2cnc(Oc3cccc(NC(=O)c4ccc(OCCN5CCOCC5)cc4)c3)cc21 [GSK269962A]; conditions: top dose 5 µM; screen: GDSC drug entry 1192; top dose inferred
Protocol: as §1

MPS-1-IN-1 = compound: COc1cc(N2CCC(O)CC2)ccc1Nc1cc(Nc2ccccc2S(=O)(=O)C(C)C)c2cc[nH]c2n1 [MPS-1-IN-1]; conditions: top dose 20 µM; top dose inferred
Protocol: as §1

(5Z)-7-Oxozeaenol = compound: COc1cc(O)c2c(c1)/C=C/C[C@H](O)[C@H](O)C(=O)/C=C\C[C@H](C)OC2=O [(5Z)-7-Oxozeaenol]; conditions: top dose 10 µM; top dose inferred
Protocol: as §1

CP466722 = compound: COc1cc2ncnc(-n3nc(-c4ccccn4)nc3N)c2cc1OC [CP466722]; conditions: top dose 16 µM; top dose inferred
Protocol: as §1

Zibotentan = compound: COc1nc(C)cnc1NS(=O)(=O)c1cccnc1-c1ccc(-c2nnco2)cc1 [Zibotentan]; conditions: top dose 20 µM; top dose inferred
Protocol: as §1

ABT-888 = compound: C[C@]1(c2nc3c(C(N)=O)cccc3[nH]2)CCCN1 [ABT-888]; conditions: top dose 5 µM; top dose inferred
Protocol: as §1

ABT-869 = compound: Cc1ccc(F)c(NC(=O)Nc2ccc(-c3cccc4[nH]nc(N)c34)cc2)c1 [ABT-869]; conditions: top dose 1.024 µM; top dose inferred
Protocol: as §1

CHIR-99021 = compound: Cc1cnc(-c2cnc(NCCNc3ccc(C#N)cn3)nc2-c2ccc(Cl)cc2Cl)[nH]1 [CHIR-99021]
Protocol: as §1

Cytarabine = compound: Nc1ccn([C@@H]2O[C@H](CO)[C@@H](O)[C@@H]2O)c(=O)n1 [Cytarabine]; conditions: top dose 2 µM
Protocol: as §1

KU-55933 = compound: O=c1cc(-c2cccc3c2Sc2ccccc2S3)oc(N2CCOCC2)c1 [KU-55933]; conditions: top dose 10 µM
Protocol: as §1

[1] = top dose 2.56 µM, screen: GDSC drug entry 154
[2] = top dose 10 µM, screen: GDSC drug entry 1241, top dose inferred

Cell Line	AUC (Thapsigargin)	IC50 (Thapsigargin) [µM]	AUC (QL-X-138)	IC50 (QL-X-138) [µM]	AUC (GSK269962A)	IC50 (GSK269962A) [µM]	AUC (MPS-1-IN-1)	IC50 (MPS-1-IN-1) [µM]	AUC ((5Z)-7-Oxozeaenol)	IC50 ((5Z)-7-Oxozeaenol) [µM]	AUC (CP466722)	IC50 (CP466722) [µM]	AUC (Zibotentan)	IC50 (Zibotentan) [µM]	AUC (ABT-888)	IC50 (ABT-888) [µM]	AUC (ABT-869)	IC50 (ABT-869) [µM]	AUC (CHIR-99021; [1])	IC50 (CHIR-99021; [1]) [µM]	AUC (CHIR-99021; [2])	IC50 (CHIR-99021; [2]) [µM]	AUC (Cytarabine)	IC50 (Cytarabine) [µM]	AUC (KU-55933)	IC50 (KU-55933) [µM]
Hs766T (pancreas, adherent)	0.2	0.00295	0.947	> 10.2	0.977	> 5	0.983	> 20	0.764	4.77	0.936	> 16	0.981	> 20	0.957	> 5	0.981	> 1.02	0.932	> 2.56	0.933	> 10	0.924	> 2	0.911	> 10
Hs939-T (melanoma, adherent)	0.496	0.0311	0.952	> 10.2	0.94	> 5	0.938	> 20	0.377	0.278	0.986	> 16	0.985	> 20	0.977	> 5	0.986	> 1.02	0.964	> 2.56	0.912	> 10	0.718	0.553	0.964	> 10
HuCCT1 (biliary tract, adherent)	0.182	0.00307	0.689	2.33	0.965	> 5	0.929	> 20	0.465	0.498	0.736	5.14	0.976	> 20	0.967	> 5	0.946	> 1.02	0.96	> 2.56	0.895	> 10	0.876	> 2	0.949	> 10
HuH-7 (liver, adherent)	0.129	0.00213	0.901	> 10.2	0.902	> 5	0.977	> 20	0.79	4.44	0.91	> 16	0.983	> 20	0.987	> 5	0.986	> 1.02	0.987	> 2.56	0.939	> 10	0.935	> 2	0.914	> 10
HuO9 (osteosarcoma, adherent)	0.914	> 0.512	0.773	4.44	0.965	> 5	0.96	> 20	0.571	1	0.642	2.58	0.983	> 20	0.978	> 5	0.901	> 1.02	0.984	> 2.56	0.95	> 10	0.904	> 2	0.898	> 10
IHH-4 (thyroid, semi-adherent)	0.08	< 0.002	0.63	1.35	0.992	> 5	0.993	> 20	0.297	0.192	0.859	9.22	0.99	> 20	0.98	> 5	0.993	> 1.02	0.992	> 2.56	0.975	> 10	0.203	0.0212	0.944	> 10
IPC-298 (melanoma, adherent)	0.308	0.00936	0.746	3.21	0.917	> 5	0.854	15.4	0.304	0.178	0.898	> 16	0.987	> 20	0.986	> 5	0.978	> 1.02	0.986	> 2.56	0.919	> 10	0.825	1.18	0.987	> 10
JHH-1 (liver, adherent)	0.166	0.00273	0.561	0.955	0.925	> 5	0.88	> 20	0.671	1.96	0.877	> 16	0.985	> 20	0.952	> 5	0.982	> 1.02	0.985	> 2.56	0.918	> 10	0.892	> 2	0.909	> 10
JHH-2 (liver, adherent)	0.955	> 0.512	0.547	0.868	0.834	3.62	0.929	> 20	0.75	3.5	0.811	9.26	0.985	> 20	0.986	> 5	0.985	> 1.02	0.986	> 2.56	0.966	> 10	0.914	> 2	0.949	> 10
JHH-7 (liver, adherent)	0.259	0.00692	0.77	3.66	0.807	2.37	0.947	> 20	0.662	1.71	0.886	15.8	0.989	> 20	0.985	> 5	0.986	> 1.02	0.989	> 2.56	0.988	> 10	0.895	> 2	0.989	> 10
